From the supplement of paper PMC10037445 come the findings set out here.

In experiment [1] the test system is RAW-Dual. Nature of the experiment: IRF Lucia reporter activity, fold change vs agonist alone; cytotoxicity flag (confluency mask): cytotoxic (confluency <70% of control); higher = enhanced IRF activity. Put shortly: (§1)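 RAW-Dual macrophages were seeded in DMEM at 50,000 cells/well in 384-well plates, given 50 nL of library stock by pin tool, and given a PRR agonist 1 h later. Plates were held at 37 °C, 5% CO2 for 20 hours, after which supernatant was read for IRF by QuantiLuc luminescence and for NF-κB by QuantiBlue absorbance at 620 nm. Reporter activity is expressed as fold change over wells that received agonist alone. A well was called cytotoxic when IncuCyte confluency fell below 70% of agonist controls in both mask sets.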

Experiment [2] deals with RAW-Dual. Nature of the experiment: IRF Lucia reporter activity, fold change vs agonist alone; higher = enhanced IRF activity. As to conditions: agonist: MPLA (TLR4) […]. A digest of the protocol: as §1
Experiment [3] deals with RAW-Dual. The experiment is described as follows: IRF Lucia reporter activity, fold change vs agonist alone; cytotoxicity flag (confluency mask): not cytotoxic; higher = enhanced IRF activity. Put shortly: as §1
[4] abbreviates: agonist: 3'3'-cGAMP (STING) 10 ug/mL.
Where [5] appears, read: library stock concentration (final ~1000-fold dilution): 10 mM, cytotoxicity flag (confluency mask): cytotoxic (confluency <70% of control).
Setting [6] is: library stock concentration (final ~1000-fold dilution): 10 mM, cytotoxicity flag (confluency mask): not cytotoxic.

Molecules are shown by their SMILES. Over roughly 2,900 compounds, “IRF Lucia reporter activity, fold change vs agonist alone” has its median near 0.9; the highest 2% begin near 2.8. The list shows a part of the results.

Take `COc1ccc(C(=O)C=Cc2cc(OC)c(OC)c(OC)c2)cc1OC` (library stock concentration (final ~1000-fold dilution): 20 mM): the figures for the “IRF Lucia reporter activity” value in the experiment with RAW-Dual [1] (setting [4]) and in the experiment with RAW-Dual [1] (agonist: LPS (TLR4) 0.1 ug/mL) were 0.0429 and 0.019, respectively.

For `CCCCNc1ncc2c(-c3ccc(CN4CCN(C)CC4)cc3)cn(C3CCC(O)CC3)c2n1.Cl` (stereo not drawn), the “IRF Lucia reporter activity” value in the experiment on RAW-Dual [2] (setting [5]) is 0.0204.

On to `CCCCNc1ncc2c(-c3ccc(CN4CCN(C)CC4)cc3)cn(C3CCC(O)CC3)c2n1.Cl` (stereo not drawn) (library stock concentration (final ~1000-fold dilution): 10 mM), for which the entries for the “IRF Lucia reporter activity” value in the experiment on RAW-Dual [1] (setting [4]) and in the experiment with RAW-Dual [1] (agonist: LPS (TLR4) 0.1 ug/mL) were 0.0105 and 0.0286, respectively.

For the molecule `CN1CCN(C(=O)C2C3CCC(O3)C2C(=O)O)CC1` (stereo not drawn), the “IRF Lucia reporter activity” value with RAW-Dual [2] (library stock concentration (final ~1000-fold dilution): 10 mM water, cytotoxicity flag (confluency mask): not cytotoxic) was 1.47.

Regarding `CN1CCN(C(=O)C2C3CCC(O3)C2C(=O)O)CC1` (stereo not drawn) (library stock concentration (final ~1000-fold dilution): 10 mM water), the “IRF Lucia reporter activity” value with RAW-Dual [3] (setting [4]) was determined as 1.33; with RAW-Dual [3] (agonist: LPS (TLR4) 0.1 ug/mL), 1.04.

Regarding `COc1ccc(S(=O)(=O)Nc2cc(-c3c(O)ccc4ccccc34)c(O)c3ccccc23)cc1` (library stock concentration (final ~1000-fold dilution): 10 mM), the “IRF Lucia reporter activity” value in the experiment on RAW-Dual [3] (setting [4]) was found to be 0.202; in the experiment on RAW-Dual [3] (agonist: LPS (TLR4) 0.1 ug/mL), 0.493.

Take `COc1ccc(CC2c3cc(OC)c(OC)cc3CC[N+]2(C)CCC(=O)OCCCCCOC(=O)CC[N+]2(C)CCc3cc(OC)c(OC)cc3C2Cc2ccc(OC)c(OC)c2)cc1OC.O=S(=O)([O-])c1ccccc1.O=S(=O)([O-])c1ccccc1` (stereo not drawn): in the experiment with RAW-Dual [2] (setting [6]), the “IRF Lucia reporter activity” value amounted to 0.627.

`COc1ccc(CC2c3cc(OC)c(OC)cc3CC[N+]2(C)CCC(=O)OCCCCCOC(=O)CC[N+]2(C)CCc3cc(OC)c(OC)cc3C2Cc2ccc(OC)c(OC)c2)cc1OC.O=S(=O)([O-])c1ccccc1.O=S(=O)([O-])c1ccccc1` (stereo not drawn) (library stock concentration (final ~1000-fold dilution): 10 mM): the “IRF Lucia reporter activity” value in the experiment on RAW-Dual [3] (setting [4]) worked out at 0.744; with RAW-Dual [3] (agonist: LPS (TLR4) 0.1 ug/mL), 0.902.

`O=C(O)C(O)Cc1ccc(O)c(O)c1` (stereo not drawn) (library stock concentration (final ~1000-fold dilution): 10 mM): the “IRF Lucia reporter activity” value in the experiment with RAW-Dual [3] (setting [4]) worked out at 1.01; with RAW-Dual [3] (agonist: LPS (TLR4) 0.1 ug/mL), 0.964.

`O=C(O)C(O)Cc1ccc(O)c(O)c1` (stereo not drawn): in the experiment with RAW-Dual [2] (setting [6]), the “IRF Lucia reporter activity” value is 1.02.

Turning to `CCN(CC)CCOC(=O)C(c1ccccc1)C1CCCCC1.Cl` (stereo not drawn) (library stock concentration (final ~1000-fold dilution): 10 mM), the figures for the “IRF Lucia reporter activity” value with RAW-Dual [1] (setting [4]) and with RAW-Dual [1] (agonist: LPS (TLR4) 0.1 ug/mL) were 0.604 and 1.07, respectively.

On to `CCN(CC)CCOC(=O)C(c1ccccc1)C1CCCCC1.Cl` (stereo not drawn), for which the “IRF Lucia reporter activity” value with RAW-Dual [2] (setting [5]) was determined as 1.39.

For `Oc1ccc(OC2CCCCO2)cc1` (stereo not drawn) (library stock concentration (final ~1000-fold dilution): 10 mM), the results for the “IRF Lucia reporter activity” value in the experiment on RAW-Dual [3] (setting [4]) and with RAW-Dual [3] (agonist: LPS (TLR4) 0.1 ug/mL) were 0.916 and 1.06, respectively.

For the molecule `Oc1ccc(OC2CCCCO2)cc1` (stereo not drawn), in the experiment on RAW-Dual [2] (setting [6]), the “IRF Lucia reporter activity” value was found to be 1.11.

Take `Nc1cccc2c1C(=O)N(C1CCC(=O)NC1=O)C2=O` (stereo not drawn): in the experiment with RAW-Dual [2] (setting [6]), the “IRF Lucia reporter activity” value was 0.864.

For `Nc1cccc2c1C(=O)N(C1CCC(=O)NC1=O)C2=O` (stereo not drawn) (library stock concentration (final ~1000-fold dilution): 10 mM), the results for the “IRF Lucia reporter activity” value in the experiment with RAW-Dual [3] (setting [4]) and in the experiment on RAW-Dual [3] (agonist: LPS (TLR4) 0.1 ug/mL) were 1.17 and 0.734, respectively.

For the molecule `NC(=O)c1nc(F)cnc1O` (library stock concentration (final ~1000-fold dilution): 10 mM), the “IRF Lucia reporter activity” value was determined as 1.1 with RAW-Dual [3] (setting [4]) and 1.21 in the experiment with RAW-Dual [3] (agonist: LPS (TLR4) 0.1 ug/mL).

Regarding `Cc1[nH]c2ccccc2c1C1=C(NCCc2ccc(F)cc2)C(=O)N(C)C1=O`, the “IRF Lucia reporter activity” value in the experiment with RAW-Dual [2] (setting [6]) was found to be 1.77.

For `Cc1[nH]c2ccccc2c1C1=C(NCCc2ccc(F)cc2)C(=O)N(C)C1=O` (library stock concentration (final ~1000-fold dilution): 10 mM), the “IRF Lucia reporter activity” value in the experiment with RAW-Dual [3] (setting [4]) came to 1.07; in the experiment on RAW-Dual [3] (agonist: LPS (TLR4) 0.1 ug/mL) it was 1.24.

As to `Nc1ccc(/C=C/C(=O)NCc2cc3cc(-c4ccc(C(=O)N5CCC(F)(F)CC5)cc4)cc(-c4ccc(F)cc4)c3o2)cn1` (library stock concentration (final ~1000-fold dilution): 10 mM), the “IRF Lucia reporter activity” value was determined as 0.239 in the experiment on RAW-Dual [3] (setting [4]) and 1.13 in the experiment on RAW-Dual [3] (agonist: LPS (TLR4) 0.1 ug/mL).

Turning to `O=C(NO)c1cccc(C(=O)NCCc2ccccc2)c1` (library stock concentration (final ~1000-fold dilution): 10 mM), the “IRF Lucia reporter activity” value with RAW-Dual [3] (setting [4]) was 0.268; with RAW-Dual [3] (agonist: LPS (TLR4) 0.1 ug/mL), 1.09.

With `CC(=O)Nc1nc2c(Oc3cc(-c4ccc(C(F)(F)F)cc4)ncn3)cccc2s1` (library stock concentration (final ~1000-fold dilution): 10 mM), the “IRF Lucia reporter activity” value was determined as 1.16 in the experiment with RAW-Dual [3] (setting [4]) and 1.22 in the experiment with RAW-Dual [3] (agonist: LPS (TLR4) 0.1 ug/mL).

`CC(=O)Nc1nc2c(Oc3cc(-c4ccc(C(F)(F)F)cc4)ncn3)cccc2s1`: in the experiment on RAW-Dual [2] (setting [6]), the “IRF Lucia reporter activity” value was 1.1.

For `CC(C)n1nc(-c2ccc3oc(N)nc3c2)c2c(N)ncnc21`, in the experiment with RAW-Dual [2] (setting [6]), the “IRF Lucia reporter activity” value was found to be 1.47.

With `CC(C)n1nc(-c2ccc3oc(N)nc3c2)c2c(N)ncnc21` (library stock concentration (final ~1000-fold dilution): 10 mM), the “IRF Lucia reporter activity” value in the experiment with RAW-Dual [3] (setting [4]) stood at 0.408; in the experiment with RAW-Dual [3] (agonist: LPS (TLR4) 0.1 ug/mL), 1.35.

Regarding `N#CSc1cc(SC#N)c(N)nc1N` (library stock concentration (final ~1000-fold dilution): 10 mM), the “IRF Lucia reporter activity” value in the experiment on RAW-Dual [1] (setting [4]) was 0.022; with RAW-Dual [1] (agonist: LPS (TLR4) 0.1 ug/mL), 0.0681.

As to `N#CSc1cc(SC#N)c(N)nc1N`, in the experiment with RAW-Dual [2] (setting [5]), the “IRF Lucia reporter activity” value is 0.0209.
